# Source: PubChem BioAssay AID624296 (National Center for Advancing Translational Sciences (NCATS), 2012)
# About 9,900 (2.8%) of roughly 350,000 compounds were called active. The shares of active, inactive and inconclusive entries below differ from those in the screen. Calls come from the whole dose curve; as a rule, active = well fitted activation curve with a large enough effect; inconclusive = small, poorly fitted or top-dose-only effect; inactive = no such curve, though single readings can be large or run the other way. No potency is given beside an inconclusive call; the fits are too rough.
# Experiment: A quantitative high throughput screen for small molecules that induce DNA re-replication in MCF 10a normal breast cells. Note: nearly all actives have a fitted effect of over 50% in size.
# Conditions: MCF 10A DNA re-replication, Hoechst nuclear intensity, 48 h; series mostly up to 46.1 µM
# Potency is the fitted concentration of half-maximal effect; tags give direction and shape of the fitted curve.
row,SMILES,Potency
1,Cc1cccc(NCc2nc(SCC(=O)Nc3ccccc3)n[nH]2)c1,"inconclusive [activator, single point]"
2,COc1ccc(OC)c(C(=O)COC(=O)COc2ccccc2)c1,"inconclusive [activator, partial curve, poor fit]"
3,O=C(CCNC(=O)c1ccc([N+](=O)[O-])cc1)Nc1cccc(S(=O)(=O)N2CCCCCC2)c1,"inconclusive [activator, partial curve, poor fit]"
4,N#CC(C#N)=C1SC(=Nc2ccccc2)C(=Nc2ccccc2)N1c1ccccc1,active: 3.26 µM
5,O=C(NC1CCCCC1)C(=O)c1c[nH]c2ccccc12,"inconclusive [activator, partial curve, poor fit]"
6,Cc1c(NC(=O)C(=O)/C=C(\O)c2ccc(Cl)cc2)c(=O)n(-c2ccccc2)n1C,inactive
7,CCN(CC)CCC(=O)N1C/C(=C/c2ccccc2)C(=O)/C(=C\c2ccccc2)C1,"inconclusive [activator, full curve, poor fit]"
8,COc1ccc(/C=N\NC(=S)SCN2C(=O)C3CCC(C)(C2=O)C3(C)C)cc1 (stereo unspecified),"inconclusive [activator, single point]"
9,CC(=O)Nc1ccc(NC(=O)CSc2nnc3ccc(-c4ccc(F)cc4)nn23)cc1,inactive
10,Cc1nc(Nc2ccc(F)cc2)nc(Nc2ccc(F)cc2)c1[N+](=O)[O-],"inconclusive [activator, partial curve, poor fit]"
11,CCCN(CC(=O)Nc1ccccc1OC)C(=O)Cc1ccccc1F,inactive
12,COc1cccc(Nc2nc(CN3CCOCC3)nc3sc4c(c23)CCCC4)c1,inactive
13,CCOC(=O)c1c(C)c(C(=O)NC2CCCCCC2)c(C)n1C,inactive
14,N#Cc1cnc(NOCc2ccc(Cl)cc2)nc1,inactive
15,COc1ccc(C(=O)CSc2nnc3ccc(-c4ccccn4)nn23)cc1,"inconclusive [activator, full curve, poor fit]"
16,N#CC(CCc1ccccc1[N+](=O)[O-])(CCc1ccccc1[N+](=O)[O-])C(N)=O,inactive
17,O=C(CSc1nnc(-c2ccccc2)c(-c2ccccc2)n1)NCc1ccco1,active: 18.4 µM
18,CCOc1cc(N2CCOCC2)c(OCC)cc1NC(=O)CN1CCCC(C)C1 (stereo unspecified),"inconclusive [activator, partial curve]"
19,COc1ccc(S(=O)(=O)Nc2c(C)n(C)n(-c3ccccc3)c2=O)cc1C(=O)O,inactive
20,O=C(CNc1cccc2ccccc12)N/N=C/c1ccccn1,"inconclusive [activator, full curve, poor fit]"
21,c1ccc(Oc2cccc(OCCCCN3CCCC3)c2)cc1,"inconclusive [activator, partial curve, poor fit]"
22,CCOc1ccccc1N1CCN(C(=O)c2ccc3[nH]c4c(c3c2)CCCC4)CC1,"inconclusive [activator, partial curve, poor fit]"
23,OCCC1CN(Cc2ccc(-n3cccn3)cc2)CCN1Cc1ccccc1 (stereo unspecified),"inconclusive [activator, partial curve, poor fit]"
24,CCCN(CC1CC1)c1nc(N)c(C#N)c(CC#N)c1C#N,"inconclusive [activator, single point]"

row,SMILES,Potency
1,O=C(CCNC(=O)c1ccccc1Cl)Nc1ccc(Cl)c(C(F)(F)F)c1,"inconclusive [activator, single point]"
2,O=C(N/N=C/c1ccccc1)c1ccc(CN2C(=O)c3cccc4cccc2c34)cc1,active: 16.4 µM
3,Clc1ccc(-n2nnnc2-c2cnc(-c3ccncc3)nc2-c2cccs2)cc1,"inconclusive [activator, single point]"
4,O=C(Cc1ccc(Cl)cc1)Nc1ccc(-c2nnc(-c3ccco3)o2)cc1,"inconclusive [activator, full curve, poor fit]"
5,c1ccc(-c2nc(-c3ccccn3)no2)cc1,"inconclusive [activator, single point]"
6,CSCCC(NS(=O)(=O)c1ccc(C)cc1C)C(=O)Nc1cccnc1 (stereo unspecified),inactive
7,COc1ccc(Nc2nc(-c3ccccc3F)nc3ccccc23)cc1OC,inactive
8,CCCCOc1ccc(CSC2=NCCN2)cc1[N+](=O)[O-],active: 20.6 µM
9,CC1=NN(c2ccccc2)C(=O)/C1=C\c1ccc(Oc2ccc([N+](=O)[O-])cc2[N+](=O)[O-])cc1,"inconclusive [activator, single point]"
10,Cc1cn(C2CCCCC2)c(=O)n(-c2ccccc2)c1=O,"inconclusive [activator, single point]"
11,COc1ccc(C)cc1S(=O)(=O)N1c2ccccc2CC1C (stereo unspecified),"inconclusive [activator, single point]"
12,O=S1(=O)N[C@@H](Cc2ccccc2)COc2cc(Br)ccc21,"inconclusive [activator, partial curve, poor fit]"
13,Cc1cccn2c(=O)c(C(=O)NC3CC(C)CC(C)(C)C3)c(O)nc12 (stereo unspecified),"inconclusive [activator, partial curve]"
14,COC(=O)c1ccc(NC(=S)NCCc2ccccc2C)cc1,"inconclusive [activator, single point]"
15,COc1cc(/C=C2\C(=O)ON=C2c2ccc(Cl)cc2)ccc1O,"inconclusive [activator, single point]"
16,CCOC(=O)/C(C#N)=C/Nc1cc(C(=O)OCC)cc2c(OC)c(OC)ccc12,active: 2.59 µM
17,CC(C)C(C)N(Cc1ccc(C(=O)O)cc1)C(=O)c1ccc2ccccc2n1 (stereo unspecified),inactive
18,CCc1ccc(CN/C=C/C(=O)c2ccc(Br)cc2)cc1,inactive
19,CCc1ccc(NS(=O)(=O)c2cc3[nH]c(=O)c(=O)[nH]c3cc2C)cc1,inactive
20,Cc1ccc(CNC(=O)c2ccc(Cn3cc(-c4ccc(C)cc4)nc3-c3ccncc3)cc2)cc1,"inconclusive [activator, partial curve, poor fit]"
21,COc1ccc(Nc2nc(OC)nc(OC)n2)cc1,inactive
22,COc1ccc(C(=O)Nc2ccc(-c3cn4ccsc4n3)cc2)cc1S(=O)(=O)N1CCOCC1,"inconclusive [activator, partial curve, poor fit]"
23,COCCn1cnc2c1c(=O)[nH]c(=O)n2Cc1ccccc1,"inconclusive [activator, single point]"
24,Cc1cc(C(=O)N/N=C/c2ccncc2)c(C)o1,inactive

row,SMILES,Potency
1,O=C(/C=C/c1ccc2ccccc2n1)N1CCN(S(=O)(=O)c2ccc(F)cc2)CC1,"inconclusive [activator, single point]"
2,NC(=O)CC(NC(=O)Cc1ccc(Br)cc1)c1ccc(NCc2ccc(F)c(F)c2)c([N+](=O)[O-])c1 (stereo unspecified),"inconclusive [activator, single point]"
3,Cc1ccc(CN2CCN(/N=C/c3cc(Br)cc(Br)c3O)CC2)c(C)c1,"inconclusive [activator, full curve, poor fit]"
4,CCSc1nnc(NC(=O)c2cc(C)nc3ccccc23)s1,inactive
5,COc1ccc(NC(=O)c2ccc3c(c2)CCN3S(=O)(=O)c2ccccc2)cc1,inactive
6,OC(CN1CCN(c2ccc(F)cc2)CC1)c1ccc(Cl)cc1 (stereo unspecified),inactive
7,S=c1[nH]cc(Oc2ccc(Cl)cc2Cl)c(=S)[nH]1,active: 16.4 µM
8,Nc1c(C(=O)CSc2n[nH]c(-c3ccccc3)n2)c(=O)[nH]c(=O)n1C1CC1,inactive
9,COC(=O)c1ccc(N2CCN(C)CC2)c(NC(=O)COc2ccccc2Cl)c1,inactive
10,Cc1cccc(NS(=O)(=O)c2cccc(C(=O)NCC(c3ccco3)N3CCCCC3)c2)c1 (stereo unspecified),"inconclusive [activator, partial curve, poor fit]"
11,CCOC(=O)C1CCN(C(c2cc3c(C)ccc(C)c3[nH]c2=O)c2nnnn2C2CCCCC2)CC1 (stereo unspecified),inactive
12,Cn1c(O)c(N=NC(=O)c2ccco2)c2ccccc21,"inconclusive [activator, single point]"
13,COCCn1c(-c2ccc(OC)cc2)cnc1N,"inconclusive [activator, partial curve, poor fit]"
14,Cc1c(C(c2cc(O)ccc2O)c2c(C)n(C)n(-c3ccccc3)c2=O)c(=O)n(-c2ccccc2)n1C,inactive
15,CCc1nc2ccccc2n1Cc1ccccc1F,inactive
16,CCCCN(CCCC)c1cn[nH]c(=O)c1Cl,inactive
17,Cc1cc(C(=O)Nc2sc3c(c2C#N)CCCC3)no1,"inconclusive [activator, partial curve, poor fit]"
18,O=C(NC1CCCCC1)c1ccc(Br)o1,"inconclusive [activator, partial curve, poor fit]"
19,O=C(c1ccc(S(=O)(=O)N2CCOCC2)cc1)N(c1cccc(Cl)c1)C1C=CS(=O)(=O)C1 (stereo unspecified),inactive
20,Cc1ccc(-c2cn(C[C@H]3CC[C@@H]([C@@H]4CC[C@H](Cn5cc(-c6ccc(C)cc6)nn5)O4)O3)nn2)cc1,"inconclusive [activator, single point]"
21,CCCCCCSc1ccc(-c2nc3ccccn3c2NCCCC)cc1,"inconclusive [activator, single point]"
22,COc1ccc(NC(=O)CN(C)C(=O)c2cccc(S(=O)(=O)Nc3ccc(F)cc3)c2)cc1,inactive
23,CCOc1ccc(/C=N/n2c(C3CCCCC3)n[nH]c2=S)cc1,active: 10.3 µM
